Drawing on PubChem BioAssay AID1346428 (National Center for Advancing Translational Sciences (NCATS), 2018), this text covers activation for 85 compounds.

SMILES strings stand for the structures. The campaign covered roughly 48,000 compounds. About 1,200 (2.5%) were called active. Another 2% or so got no clear call; they are omitted.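 Rule for the calls: active = activation of at least 60% and not above a set upper limit (about 1 call in 100 departs from these limits); inconclusive = activation of 40% to 60%, or above that upper limit; inactive = activation under 40%.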 The list shows a part of the results.

UniProt O75388, sequence (O75388 whole entry, looked up): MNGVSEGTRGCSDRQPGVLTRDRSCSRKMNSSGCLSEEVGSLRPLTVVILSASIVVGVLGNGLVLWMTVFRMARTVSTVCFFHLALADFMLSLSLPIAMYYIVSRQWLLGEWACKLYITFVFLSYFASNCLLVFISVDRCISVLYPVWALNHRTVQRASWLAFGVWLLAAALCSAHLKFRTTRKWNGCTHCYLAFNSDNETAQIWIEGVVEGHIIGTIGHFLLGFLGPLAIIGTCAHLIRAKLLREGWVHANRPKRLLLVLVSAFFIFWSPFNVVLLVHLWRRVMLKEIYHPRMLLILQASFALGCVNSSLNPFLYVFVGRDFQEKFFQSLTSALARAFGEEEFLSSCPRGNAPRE

The test concerns the target Probable G-protein coupled receptor 32 (Homo sapiens) (UniProt O75388). Briefly: qHTS for Agonists of Human Resolvin D1 Receptor DRV1. Note: 0% is about no effect. Conditions: CHO-K1 GPR32 beta-arrestin PathHunter luminescence, 90 min; at 76.9 µM; stronger effect = higher value; zero percent set by DMSO-only wells. In outline:
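Step 1: seed CHO-K1 GPR32 beta-arrestin cells, 2,500/well, overnight at 37 °C. Step 2: add compounds, 90 min at 37 °C. Step 3: detection reagent, 1 h ambient, then luminescence.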
On the technique in general: qHTS replaces the single test concentration by a dilution series.
For the compound `COc1cc(CNc2ccc3c(c2)ncn3C(C)C)cc(OC)c1OC`, the activation is inactive: -19.8%.

Take `O=C(CN(CCc1ccccc1)S(=O)(=O)c1ccccc1)NCc1ccc(Cl)cc1`: the activation was inactive: -10.6%.

Regarding `COc1cccc(NC(=O)CSCn2nnc3c(=O)[nH]c(Cc4ccc(F)cc4)nc32)c1`, the activation is inactive: 5.2%.

For the compound `O=C(Nc1ccccc1Cl)C1CCN(c2nc3ccccc3[nH]2)CC1`, the activation was inactive: -15.9%.

As for `Cc1ccc(Cl)cc1N1CCN(C(=O)c2cc(S(=O)(=O)N3CCCCCC3)cn2C)CC1`, the activation is inactive: -1.2%.

As to `Cc1cc(Cl)ccc1Nc1ncnc2onc(C)c12`, the activation was inactive: 3.65%.

Regarding `O=C(CSc1nc2c([nH]c3ccccc32)c(=O)n1-c1ccccc1F)Nc1ccccc1C(F)(F)F`, the activation is inactive: -55.2%.

On to `COC(=O)c1ccc2c(c1)N(CC(=O)Nc1cccc(C(F)(F)F)c1)C(=O)c1ccccc1S2`, for which the activation is active: 107%.

`COc1ccc(NC(=O)C2CCCN(S(=O)(=O)c3ccc4c(c3)CCCN4C(C)=O)C2)cc1` (stereo not given): the activation was inactive: -6.14%.

For `Cc1ccc(-c2cc3c(n2-c2ccccc2F)CC(C)(C)CC3=O)cc1`, the activation is inactive: -3.36%.

`O=C1CC(c2nnc(Cc3ccccc3Cl)o2)CN1c1ccccc1` (stereo not given): the activation is inactive: -13.7%.

Take `O=C(CC1C(=O)N(c2ccccc2)C(=O)N1Cc1ccc2c(c1)OCO2)Nc1ccccc1` (stereo not given): the activation is inactive: 7.9%.

`Cc1c(C)n(Cc2ccc(F)cc2)c2ccc(C(=O)Nc3ccc(Cl)cc3)cc12`: the activation was inactive: 4.7%.

Take `CCOC(=O)c1ccc(CN(Cc2ccccc2C)S(=O)(=O)c2ccc(F)c(C(=O)Nc3cccc(OC)c3)c2)cc1`: the activation is inactive: -24.1%.

Regarding `COc1ccc(NC(=O)c2oc3ccccc3c2NC(=O)Cc2cccs2)cc1`, the activation is inactive: -9.37%.

Regarding `Cc1ccc(NC(=O)c2sc3nc(-c4ccc(F)cc4)ccc3c2N)cc1F`, the activation is active: 85.8%.

`COc1ccc(NC(=O)CN2C(=O)COc3ccc(S(=O)(=O)N4CCCCC4)cc32)cc1Cl`: the activation is inactive: -5.25%.

As for `O=C(CN1C(=O)CSc2ccc(S(=O)(=O)N3CCCC3)cc21)NCc1ccc(Cl)cc1`, the activation was inactive: -20.4%.

With `COc1ccc(C)cc1NC(=O)N1CCN(c2cc(-c3noc(C)n3)ccc2C)CC1`, the activation was inactive: -1.49%.

Consider `COc1ccccc1N1CCN(c2ccc(-c3nc(-c4ccccc4)no3)cc2[N+](=O)[O-])CC1`, for which the activation is inactive: -24.1%.

On to `CCC1CCCCN1CCCNC(=O)c1ccc2c(c1)N(Cc1ccc(Cl)cc1)C(=O)c1ccccc1S2(=O)=O` (stereo not given), for which the activation was inactive: -6.38%.

Regarding `O=C(Cn1cc(C(=O)C2CC2)c2ccccc21)Nc1ccc(Br)cc1`, the activation was inactive: 25.6%.

For `Cc1ccc(C)c(Cn2c(=O)n(CCCCCC(=O)NCc3ccc4c(c3)OCO4)c(=O)c3sccc32)c1`, the activation was inactive: -12.5%.

Take `CC(=O)c1ccc(NC(=O)CCCc2nc(-c3cccc(C)c3)no2)cc1`: the activation is inactive: 29.7%.

As for `Cc1ccc2c(CC(=O)N(Cc3ccc(Cl)cc3)Cc3ccco3)coc2c1`, the activation is inactive: -27%.

Turning to `Cc1ccccc1Nc1cc(C(=O)NCCc2ccc(Cl)cc2)c2ccccc2n1`, the activation is inactive: -15.3%.

`COC(=O)Cc1c(C)c2ccc3c(c2oc1=O)CN(Cc1ccccc1OC)CO3`: the activation was inactive: -12.5%.

`CC(CNC(=O)Cn1c(-c2cccs2)cc2ccccc21)c1ccccc1` (stereo not given): the activation is inactive: -23.3%.

Regarding `CCC(=O)N1CCc2cc(Br)cc(S(=O)(=O)N3CCCC(C(=O)NCc4ccc(OC)cc4)C3)c21` (stereo not given), the activation is inactive: 1.7%.

Turning to `Cc1oc(-c2ccc(Cl)cc2)nc1CSCC(=O)NCc1ccccc1Cl`, the activation was inactive: -15.2%.

Turning to `COc1cc(C2c3c(oc4ccc(C)cc4c3=O)C(=O)N2Cc2ccccc2)ccc1O` (stereo not given), the activation is inactive: -2.46%.

On to `COc1cccc(C(=O)Nc2c(C(=O)c3ccc(F)cc3)oc3ccccc23)c1`, for which the activation was inactive: -0.899%.

For `Cc1ccc(Cl)cc1N1CCN(CCCNC(=O)c2nnc(Cc3cccc(Cl)c3)o2)CC1`, the activation was inactive: -3.6%.

Turning to `O=C(Nc1cccc(F)c1)c1cccc2c1C(=O)N(C1CCCCC1)C2`, the activation is inactive: -19.5%.

As for `CCCOc1ccc(C2c3c(-c4ccccc4O)n[nH]c3C(=O)N2CCCOCC)cc1OCC` (stereo not given), the activation was inactive: -10.2%.

As to `CCC(=O)N1CCCc2cc(S(=O)(=O)N3CCC(C(=O)Nc4ccccc4CC)CC3)ccc21`, the activation was inactive: 6.2%.

In the case of `COc1cccc(NC(=O)CSc2nnc(-c3cccs3)o2)c1`, the activation was inactive: -0.232%.

With `COc1ccccc1NC(=O)Cn1c(=O)n(-c2cccc(Cl)c2)c(=O)c2c1c1cc(C)ccc1n2C`, the activation is inactive: -9.68%.

As for `CC1=C(c2ccc(C)c(C)c2)S(=O)(=O)N=C1N1CCC(C(=O)Nc2cccc(F)c2)CC1`, the activation was inactive: -13.3%.

Consider `Cc1cc(C)cc(Nc2nnc(-n3nc(C)cc3C)c3ccccc23)c1`, for which the activation is inactive: -26.6%.

Regarding `CN1CCc2nc3sc(C(=O)Nc4cccc(C#N)c4)c(N)c3cc2C1`, the activation is inactive: 15.8%.

Turning to `CCCOc1ccc(NC(=O)CC2C(=O)N(c3ccc(Cl)cc3)C(=O)N2CCc2ccncc2)cc1` (stereo not given), the activation was inactive: -13.9%.

For the compound `CCN1CCN(Cc2c(O)ccc3oc(C)c(C(=O)Nc4ccc(C)cc4C)c23)CC1`, the activation is inactive: -8.45%.

`CCc1ccccc1NC(=O)CSc1ncc(S(=O)(=O)c2ccccc2)c(=O)[nH]1`: the activation was inactive: -2.96%.

Take `Cc1cccc(OCC(=O)Nc2ccc(Cl)c(-c3nc4ccccc4[nH]3)c2)c1`: the activation was inactive: -0.956%.

In the case of `O=C(CCc1nc2cccnc2n1Cc1cccs1)Nc1cccc(Cl)c1`, the activation was inactive: -19.1%.

As for `CCn1cc(C(=O)NCc2ccc(C)cc2)c(=O)c2cc(S(=O)(=O)N3CCCCCC3)ccc21`, the activation is inactive: 21.3%.

As for `CCOc1ccc(CNC(=O)c2ccc(NC(=O)N3CCCCc4ccccc43)cc2)cc1OC`, the activation was inactive: 18.8%.

Turning to `COc1ccccc1CNC(=O)c1ccc2nc(-c3ccccc3)c(-c3ccccc3)nc2c1`, the activation is inactive: -0.886%.

For the compound `C/C=C/C=N/NC(=O)c1ccncc1`, the activation was inactive: -4.7%.

On to `CC(C)CNc1nc(Oc2ccc(OCC(N)=O)nn2)nc(N2CCOCC2)n1`, for which the activation was inactive: 1.69%.

For `Cc1nn(C)c2c1c(C(F)(F)F)cc(=O)n2Cc1cccc(Br)c1`, the activation is inactive: -2.37%.

`CCOC(=O)c1cc(-c2ccccc2)n(CCC(=O)Nc2ccc(Cl)c(C(F)(F)F)c2)c1C`: the activation is inactive: 10.3%.

On to `Cc1cccc(NS(=O)(=O)c2ccc(-n3cccn3)cc2)c1C`, for which the activation was active: 72.6%.

In the case of `Cn1cc(S(=O)(=O)N2CCCCCC2)cc1C(=O)NCc1ccccc1Cl`, the activation is inactive: -6.46%.

As to `CCOc1ccc(-n2c(-c3ccccc3)c(C)n3c4c(=O)n(C)c(=O)n(C)c4nc23)cc1`, the activation was inactive: 13.6%.

For the compound `N[C@@H](Cn1ccc(=O)c(O)c1)C(=O)O`, the activation is inactive: -5.42%.

Turning to `CCCNC(=O)C1CCN(c2ncnc3c2nc2n3CCCCC2)CC1`, the activation is inactive: 1.19%.

Turning to `CCc1ccc(-n2c(=O)c3sc4ccccc4c3n(Cc3cccc(F)c3)c2=O)cc1`, the activation was inactive: 17.9%.

Consider `CC(N)(Cc1ccc(O)c(O)c1)C(=O)O` (stereo not given), for which the activation is inactive: -1.27%.

As for `CCc1nnc(NC(=O)c2nc(SCc3ccccc3C)ncc2Cl)s1`, the activation was inactive: 9.71%.

As to `CCCCCOc1ccc(/C=C/C(=O)Nc2sc(C(C)=O)c(C)c2C(=O)OCC)cc1OC`, the activation was inactive: 1.62%.

As to `CCCC(=O)NCC(c1ccc2c(c1)OCO2)N1CCN(c2ccccc2)CC1` (stereo not given), the activation is inactive: -19.2%.

`CCOC(=O)N1CCc2c(sc(NCc3ccc(OC)c(OC)c3OC)c2C(=O)Nc2ccc(OC)cc2OC)C1`: the activation is active: 85.5%.

For `Cc1oc(C)c2c(=O)cc(-c3ccc4c(c3)OCO4)cc(OC(=O)c3ccccc3Cl)c12`, the activation is inactive: -13.1%.

On to `CC(=O)NO`, for which the activation was inactive: -5.5%.

Turning to `Cc1c(Cl)cccc1NC(=O)Cn1c(=O)nc(-c2ccccc2)c2ccccc21`, the activation is inactive: -15.6%.

For `Cc1onc(-c2ccc(F)cc2F)c1C(=O)Nc1cccc(C(F)(F)F)c1`, the activation is inactive: -24.5%.

As for `CC(C)Sc1ncc(Cl)c(C(=O)Nc2nnc(C(C)C)s2)n1`, the activation is inactive: 4.87%.

Turning to `CN(C(=O)C(=O)Nc1ccc2nc3n(c(=O)c2c1)CCCCC3)c1cccc(C(F)(F)F)c1`, the activation is inactive: 24.7%.

For `CCc1ccc(CNC(=O)c2cc(-c3ccc(Br)s3)nc3ccccc23)cc1`, the activation was inactive: -5.41%.

For the compound `COc1cccc(-c2ccc3c(N)c(C(=O)NCc4ccc(Cl)cc4)sc3n2)c1`, the activation was inactive: 6.57%.

Take `COc1ccc(OC)c(-c2cc(C(=O)NC(C)c3ccccc3)no2)c1` (stereo not given): the activation was inactive: -14.8%.

Consider `O=C(Nc1ccccc1)c1cccc(S(=O)(=O)Nc2cccc(F)c2)c1`, for which the activation was inactive: 48.2%.

Take `CCCOc1ccc(C2C(=O)N(C3CCC(C)CC3)CC(=O)N2CCC2=CCCCC2)cc1OC` (stereo not given): the activation was inactive: -11.4%.

Turning to `Cc1cccc(N2CCN(C3(c4ccccc4)C(=O)c4ccccc4C3=O)CC2)c1C`, the activation is inactive: -0.409%.

Turning to `Cc1ccc2onc(CC(=O)N(C)c3ccccc3)c2c1`, the activation was inactive: -10.7%.

With `COc1ccc(CCNC(=O)c2c(C)nn(-c3ccc(F)cc3)c2-n2cccc2)cc1OC`, the activation was inactive: 16.6%.

For the compound `O=S(=O)(Nc1ccc2nc(-c3cccc(Cl)c3)oc2c1)c1ccccc1`, the activation is active: 93.4%.

`Cc1ccc(S(=O)(=O)N2CCOCC2)cc1C(=O)Nc1ccccc1C(=O)O`: the activation is inactive: -2.98%.

In the case of `CC(=O)N[C@@H](CCC(N)=O)C(=O)O`, the activation was inactive: 2.95%.

Take `CCS(=O)(=O)c1ncc(Cl)c(C(=O)N2CCN(c3cccc(Cl)c3)CC2)n1`: the activation was inactive: -22%.

With `[O-][n+]1ccccc1SSc1cccc[n+]1[O-]`, the activation is inactive: 3.67%.

Consider `Cc1ccc(NCc2ccccc2-c2nnc(-c3ccccc3Cl)o2)c(C)c1`, for which the activation is inactive: -19.9%.

Consider `NC(=O)C1(N2CCCCC2)CCN(C(=O)Nc2ccc(C(F)(F)F)cc2)CC1`, for which the activation is inactive: -11.4%.
